Source: PubChem BioAssay (Tox21)
Inconclusive means that the source gave no clear call. Such entries were picked first, then a sample of the others. No potency is given beside an inconclusive call; the fits are too rough. Activity calls are given as the source filed them. Unless noted, calls follow the shape of the dose curve; as a rule, active = well fitted curve in the direction sought with a large enough effect in the repeat runs; inconclusive = weak or mixed curves; inactive = no such curve, though single readings can be large; an effect the other way counts as inactive or inconclusive.
Potency is read from the fitted curve at half-maximal effect; tags tell the direction and shape of the fitted curve.

Tested on: not listed separately
Assay: qHTS assay to identify small molecule antagonists of the estrogen related receptor (ERR) signaling pathway (AID 1224819; also: nearly all actives have a fitted effect of over 50% in size)
Details: ERR reporter cell line, luciferase inhibition; series mostly up to 46.1 µM
Summary of the method: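 Compounds dissolved in DMSO were pin-transferred onto ERR cells that had been plated 6 h earlier, and cells were then incubated 18 h at 37 C; signal was luciferase luminescence via One-Glo.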
For `OCCN(CCO)c1nc(N2CCCCC2)c2nc(N(CCO)CCO)nc(N3CCCCC3)c2n1`, the Potency was active: 11.9 µM.
For `Cc1nc2ccccn2c(=O)c1CCN1CCC(C(=O)c2ccc(F)cc2)CC1`, the Potency was “inactive”.
With `Cc1cccc(C)c1NC(=O)C(C)N` (configuration not stated) the Potency was “inactive”.
For `O=C(CCCN1CCC(O)(c2cccc(C(F)(F)F)c2)CC1)c1ccc(F)cc1`, the Potency was inconclusive [inhibitor].
In the case of `C[C@]12C=CC(=O)C=C1CC[C@H]1[C@@H]3C[C@@H](O)[C@](O)(C(=O)CO)[C@@]3(C)C[C@H](O)[C@@]12F`, the Potency is reported as “inactive”.
In the case of `C[C@](N)(Cc1ccc(O)cc1)C(=O)O`, the Potency is reported as “inactive”.
With `CCO/C([O-])=N/c1c[n+](N2CCOCC2)no1` the Potency was “inactive”.

Tested on: estrogen-related receptor alpha (ERRalpha) with PGC-1alpha coactivator, human
Assay: qHTS assay to identify small molecule antagonists of the estrogen related receptor signaling pathway with the pleiotropic PPARgamma coactivator (PGC) (AID 1224821; calls by dose curve; also: nearly all actives have a fitted effect of over 50% in size)
Details: ERR/PGC reporter cell line, luciferase, antagonist mode; series mostly up to 46.1 µM
Summary of the method: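 Quantitative HTS for antagonism: PGC/ERR cells received compounds after 6 h attachment and were incubated 18 h at 37 C, with luminescence (One-Glo) as the endpoint.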
With `OCCN(CCO)c1nc(N2CCCCC2)c2nc(N(CCO)CCO)nc(N3CCCCC3)c2n1` the Potency was inconclusive [inhibitor].
With `Cc1nc2ccccn2c(=O)c1CCN1CCC(C(=O)c2ccc(F)cc2)CC1` the Potency was “inactive”.
For `CCCCCCCC/C=C\CCCCCCCC(=O)NCc1ccc(O)c(OC)c1`, the Potency was inconclusive [inhibitor, single point].
With `CCO/C([O-])=N/c1c[n+](N2CCOCC2)no1` the Potency was “inactive”.

Tested on: not listed separately
Assay: qHTS assay to identify small molecule antagonists of the estrogen related receptor signaling pathway with the pleiotropic PPARgamma coactivator (PGC) cell viability counter screen (AID 1224822;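 also: viability read after 17.5 h compound exposure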)
Details: ERR/PGC reporter cell line viability counter screen; series mostly up to 46.1 µM
Summary of the method: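 Seed PGC/ERR cells (2,000/well); incubate 6 h at 37 C/5% CO2; pin-transfer compounds in DMSO; incubate 17.5 h at 37 C; add CellTiter-Fluor; after 30 min read fluorescence.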
In the case of `OCCN(CCO)c1nc(N2CCCCC2)c2nc(N(CCO)CCO)nc(N3CCCCC3)c2n1`, the Potency is reported as inconclusive.
For `Cc1cccc(C)c1NC(=O)C(C)N` (configuration not stated), the Potency was “inactive”.
With `COCCc1ccc(OCC(O)CNC(C)C)cc1` (configuration not stated) the Potency was “inactive”.
With `C[C@]12C=CC(=O)C=C1CC[C@H]1[C@@H]3C[C@@H](O)[C@](O)(C(=O)CO)[C@@]3(C)C[C@H](O)[C@@]12F` the Potency was “inactive”.
For `C[C@](N)(Cc1ccc(O)cc1)C(=O)O`, the Potency was “inactive”.
With `CCOC(=O)c1ncn2c1CN(C)C(=O)c1cc(F)ccc1-2` the Potency was “inactive”.
